From PubChem BioAssay AID2546 (National Center for Advancing Translational Sciences (NCATS), 2010)
About 11,000 (3.5%) of roughly 310,000 compounds were called active. Inconclusive results, whose numbers are uncertain, are shown with a selection of clear calls. The call rests on the fitted dose curve; in most records, active means well fitted inhibition curve with a large enough effect; inconclusive means small, poorly fitted or top-dose-only effect, or effect the other way; inactive means flat fitted curve, though single readings scatter. No potency is given beside an inconclusive call; the fits are too rough.

experiment: VP16 counterscreen qHTS for inhibitors of ROR gamma transcriptional activity; details: Drosophila S2 Gal4-VP16 UAS-luciferase, luminescence, 20 h; activity, negative = inhibition: at 53.6 µM (top of the series);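 further: Gal4-VP16 expression switched on by copper sulfate through the metallothionein promoter; nearly all actives have a fitted effect of over 50% in size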
On the % scale 0 is the no-effect control and ±100 the full control effect; potency means the concentration at half of the fitted maximal effect; tags describe the fitted curve by direction and shape.

Row | Structure (SMILES) | Potency | activity, negative = inhibition
1 | COc1cccc2c(C)c(C(=O)O)[nH]c12 | active: 10 µM | 
2 | Cc1cccc(C2=NN(c3ccccc3)[C@H](CO)[C@H]2C)c1 | inconclusive [inhibitor, single point] | 
3 | CCCCOc1ccc(-c2n[nH]c(=S)n2Cc2ccccc2)cc1 | inconclusive [inhibitor, partial curve] | 
4 | CC(=O)Nc1ccccc1OCC(=O)NCCc1ccc(Cl)cc1Cl | inconclusive [inhibitor, single point] | 
5 | CCN1CCc2c(sc(NC(=O)c3ccc(S(=O)(=O)N4CCCC4)cc3)c2C(=O)NC)C1 | inconclusive [inhibitor, single point] | 
6 | NS(=O)(=O)c1ccc(NC(=O)COC(=O)COc2ccc(Br)cc2)cc1 |  | inactive: -1.46%
7 | Cn1cccc1-c1cc(C(=O)N/N=C/c2cc(Br)ccc2O)[nH]n1 | active: 10 µM | 
8 | COc1cc(C(=O)NCC(=O)N2CCN(S(=O)(=O)c3cc(C)ccc3C)CC2)cc(OC)c1OC |  | inactive: 8.29%
9 | CCCCC(=O)N1C/C=C\C(c2ccc(OC)cc2)N(Cc2ccc(F)cc2)C(=O)C1Cc1ccccc1 (centres undefined) | inconclusive [inhibitor, single point] | 
10 | CSCCC(NS(=O)(=O)c1ccc2c(c1)OCCO2)C(=O)N(C)Cc1ccc(C)cc1 (centres undefined) |  | inactive: -11.7%
11 | COc1ccc(CS(=O)c2nc(C)cc(C)c2S(C)(=O)=O)cc1 (centres undefined) |  | inactive: -6.22%
12 | Cn1c(Cc2ccccc2)nnc1SCCC(=O)Nc1ccccc1 |  | inactive: -6.86%
13 | COC(=O)CCCC1=CC2=CC(=O)C(C)(OC(=O)c3cccs3)C(=O)C2=CN1CCCOC(C)C (centres undefined) |  | inactive: -0.0666%
14 | Cc1ccccc1C(=O)NNC(=O)CSc1nnc(C)n1-c1ccccc1 | inconclusive [activator, single point] | 
15 | Cc1ccc(-c2ocnc2C(=O)Nc2nc(C)cs2)cc1 | inconclusive [inhibitor, single point] | 
16 | Cn1c(=O)c2ccccc2n(Cc2ccccc2F)c1=O | inconclusive [inhibitor, single point] | 
17 | CCOc1ccccc1C(=O)Nc1nnc(COC)s1 | inconclusive [inhibitor, partial curve, poor fit] | 
18 | CCC[n+]1c(C)sc2c3c(ccc21)CCCC3 |  | inactive: -12.4%
19 | Cc1nnn(-c2nonc2N)c1C(=O)N/N=C/c1ccccc1O | active: 2.82 µM | 
20 | CC1CCCN(S(=O)(=O)c2ccc(C(=O)Nc3nnc(-c4ccco4)o3)cc2)C1 (centres undefined) | active: 0.501 µM | 
21 | COc1ccccc1Nc1nc(N)nc(CN2CCN(c3ccccc3F)CC2)n1 | active: 7.94 µM | 
22 | CCOC(=O)c1c(C)[nH]c(C)c1S(=O)(=O)N(C)CC(=O)Nc1ccccc1C |  | inactive: 0%
23 | Cn1c(=O)c2c(ncn2C)n(C)c1=O | inconclusive [inhibitor, partial curve] | 
24 | CC(=O)c1sc(NC(=O)C2COc3ccccc3O2)nc1C (centres undefined) | active: 10 µM | 
25 | C/C(Cl)=C\Cn1c(NCCc2ccccc2)nc2c1c(=O)n(C)c(=O)n2C | active: 3.55 µM | 

Row | Structure (SMILES) | Potency | activity, negative = inhibition
26 | CC(C)c1ccc(-c2nnn(CCC(=O)O)n2)cc1 | inconclusive [inhibitor, full curve] | 
27 | N#Cc1ccc(-c2ccc(OCC(O)Cn3nnc4ccccc43)cc2)cc1 (centres undefined) | inconclusive [inhibitor, single point] | 
28 | CCCN1CCC(=O)N(CCSc2ccc(C)cc2)CC1 | inconclusive [activator, full curve, poor fit] | 
29 | Cc1cc(CNC(=O)CCc2nnc(CCCc3ccccc3)o2)nn1C | inconclusive [activator, single point] | 
30 | O=C(CSc1nccc(=O)[nH]1)Nc1cccc(S(=O)(=O)N2CCOCC2)c1 |  | inactive: 1.46%
31 | COc1ccc(/C=C/C(=O)NC(=S)N2CCN(c3ccccn3)CC2)cc1 | active: 12.6 µM | 
32 | COc1cc(/C=N/NC(=O)c2c(C)nnn2-c2nonc2N)ccc1O |  | inactive: 2.42%
33 | Cc1ccc(NC(=O)CCC(=O)N2CCC(C)CC2)c([N+](=O)[O-])c1 |  | inactive: -14.2%
34 | COc1ccccc1C(CCNCc1ccccc1)c1ccc(OC(C)C)cc1 (centres undefined) |  | inactive: -19.2%
35 | CCCCCCCCCCOC(=O)Cn1c(COc2cccc(OC)c2)[n+](C)c2ccccc21 | inconclusive [inhibitor, single point] | 
36 | N#Cc1ccc(-c2cccnc2)nc1SCC(=O)Nc1sc2c(c1C#N)CCC2 | inconclusive [inhibitor, single point] | 
37 | C=CCn1c(-c2cccn(Cc3ccc(Cl)cc3)c2=O)n[nH]c1=S | inconclusive [inhibitor, single point] | 
38 | CCOc1cc(S(=O)(=O)Nc2ccc(CC)cc2)ccc1Cl | inconclusive [inhibitor, single point] | 
39 | CC(C)C[C@H](NC(=O)c1[nH]cnc1C(=O)N[C@@H](C)C(=O)OCc1ccccc1)C(=O)OC(C)(C)C | active: 15.8 µM | 
40 | O=C(NN=C1CCCC1)c1sc2ccccc2c1Cl | inconclusive [inhibitor, single point] | 
41 | [N-]=[N+]=CC(=O)CCCN1C(=O)c2ccccc2C1=O |  | inactive: 3.9%
42 | N=C1C(c2nc3ccccc3[nH]2)=C(O)CN1c1ccc(CC(=O)O)cc1 |  | inactive: 5.77%
43 | Cc1c(NC(=O)c2cc(=O)[nH]c3ccccc23)c(=O)n(-c2ccccc2)n1C |  | inactive: 2.65%
44 | COc1ccc(N(C(=O)CCl)C(C(=O)NCCc2ccccc2)c2cccs2)cc1 (centres undefined) | inconclusive [inhibitor, single point] | 
45 | Cc1ccc(CN2CCN(CC(=O)NCCCN3CCN(c4ccc(F)cc4)CC3)C2=O)cc1 | inconclusive [inhibitor, single point] | 
46 | CC(C)(Oc1ccc(Cl)cc1)C(=O)Nc1ccncc1 | inconclusive [inhibitor, single point] | 
47 | Cc1ccc(Cl)cc1NC(=O)c1cccc(OC(F)F)c1 |  | inactive: 21.4%
48 | COc1cccc(-c2cc(C(F)(F)F)n3nc(C(=O)N4CCCCC4c4cccnc4)cc3n2)c1 (centres undefined) |  | inactive: -8.54%
49 | N/C(=N\OC(=O)/C=C/c1ccc(Br)cc1)c1ccccn1 | inconclusive [inhibitor, single point] | 
50 | COc1cccc(/C=C/C(=O)N2CCN(c3ccccn3)CC2)c1 |  | inactive: 3.47%

Row | Structure (SMILES) | Potency | activity, negative = inhibition
51 | COc1ccc(CC(=O)c2ccc(O)cc2O)cc1 | inconclusive [inhibitor, single point] | 
52 | CCN(CC)S(=O)(=O)c1cccc(-c2nnc(SC(C)C#N)n2Cc2ccccc2)c1 (centres undefined) |  | inactive: -10.7%
53 | COc1ccc(/C=C2\CCc3ccccc3C2=O)cc1Cn1nc(C)cc1C | inconclusive [inhibitor, single point] | 
54 | O=C(Nc1cccc(S(=O)(=O)N2CCCCC2)c1)c1ccc(OCC2CCCO2)cc1 (centres undefined) | inconclusive [inhibitor, single point] | 
55 | CC(=O)N1CCN(c2ccc(NC(=S)NC(=O)c3ccc(C)c([N+](=O)[O-])c3)cc2)CC1 | active: 7.94 µM | 
56 | Cc1cc(N/N=C/c2ccc(F)cc2)nc(NCc2ccccc2)n1 | inconclusive [inhibitor, single point] | 
57 | O=c1[nH]c(-[n+]2ccc3ccccc3c2)c(/C=N/N=C(\[O-])c2ccccc2)s1 | inconclusive [activator, single point] | 
58 | O=C(Nc1cccc(Cl)c1)Nc1nnc(-c2ccncc2)s1 |  | inactive: -11.2%
59 | COc1ccc(-n2c(-c3ccc(Cl)cc3)c[nH]c2=S)cc1 | active: 2.82 µM | 
60 | CCC(Sc1ccc(C(=O)O)cc1)C(=O)O (centres undefined) |  | inactive: -0.322%
61 | COc1cc(OC)c2c(-c3cccc(-c4ccc(O)cc4)c3)cc(=O)oc2c1 | inconclusive [inhibitor, single point] | 
62 | COc1ccc(CNCCC(c2ccc(OC(C)C)cc2)c2ccccc2OC)cc1 (centres undefined) | inconclusive [inhibitor, single point] | 
63 | C=CCn1c2ccccc2c2nnc(SCCCn3c(=O)[nH]c4ccccc43)nc21 | inconclusive [inhibitor, partial curve] | 
64 | CC1CCCN(c2ccc([N+](=O)[O-])cc2C(=O)c2ccccc2)C1 (centres undefined) | inconclusive [activator, single point] | 
65 | CCC1CCCCN1C(=S)NC(=O)c1cc(S(=O)(=O)N2CCOCC2)ccc1C (centres undefined) | active: 3.98 µM | 
66 | O=C(N/N=C/c1ccc(-c2ccccc2[N+](=O)[O-])o1)[C@H]1C[C@@H]1c1ccccc1 | active: 11.2 µM | 
67 | COc1ccc(C(=O)NC(=S)N2CCOCC2)cc1OC | inconclusive [inhibitor, single point] | 
68 | CCCCNC(=S)NNc1c(Cl)cc(Cl)cc1Cl | active: 5.01 µM | 
69 | COc1ccc(CC(N)C(=O)NC2C(CO)OC(n3cnc4c(N(C)C)ncnc43)C2O)cc1 (centres undefined) | inconclusive [activator, single point] | 
70 | Cn1nc(C(=O)Nc2c(-c3ccccc3)nc3sccn23)c2ccccc2c1=O | inconclusive [inhibitor, single point] | 
71 | O=C(CSc1nc2ccc(Nc3nc(N4CCOCC4)nc(N4CCOCC4)n3)cc2s1)Nc1ccccc1Cl | inconclusive [inhibitor, partial curve, poor fit] | 
72 | Nc1c(-c2ccccc2)cnn1-c1ccc(C(=O)O)cc1 | inconclusive [inhibitor, single point] | 
73 | CCC(Sc1ccccn1)C(=O)Nc1cccc([N+](=O)[O-])c1 (centres undefined) | inconclusive [inhibitor, single point] | 
74 | COc1cccc(CNC(=O)c2c[nH]n3c(=O)c(Cl)c(C)nc23)c1 |  | inactive: -11.8%
